Consider 79 compounds from PMC12040169 (PLOS Biology, 2025).

Some of the results follow.

The experiment has as its system T1, C. trachomatis L2/434/Bu expressing GFP (CTL2-GFP).
T1 construct: L2/434/Bu GFP intracellular growth in HeLa cells
Details: species or system HeLa; C. trachomatis total inclusion area by high-content imaging, normalised to DMSO. Conditions: total inclusion area; 28.5 h, 10 µM; inhibitor. The method in brief: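 High-content imaging followed the bulk GFP/resorufin measurement: fixed, Hoechst-stained cells were scored for GFP inclusions and host nuclei per well. Total inclusion area and count served as growth proxies, nuclei number as the viability proxy. MIC calculation matched the bulk assay.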
For the compound `COc1ccc2c(c1)C(C)CC(C)(C)N2C(=O)CSc1nnc(-c2ccco2)n1C` (stereo not shown) [CBK059169], the “% of control remaining” value amounted to 99.2116. The figure for `OCCN1CCC2(CC1)CN(CCO)c1ccccc12` [CBK126759] is 97.8273.

Regarding `CCN(CC(=O)NCc1ccc(Cl)cc1)S(=O)(=O)N1CCCCCC1` [CBK305733], the “% of control remaining” value worked out at 90.9173. The figure for `CN1C(c2ccccc2)=NO[C@]1(C)c1ccccc1` [CBK027170] is 30.0735; for `CCCn1nc(C)c(-c2cncn2CCCN2CCCCC2)c1C` [CBK281496] it is 88.0383; for `CN1CCN(NC(=O)COc2cccc(C(F)(F)F)c2)CC1` [CBK268124] it is 94.295.

Consider `COc1ccc(C(=O)N2CCC3(CCCN(C(=O)CC4NC(=O)NC4=O)C3)C2)cc1OC` (stereo not shown) [CBK137082], for which the “% of control remaining” value is 90.0687. For the compound `CC(=O)NC(c1ccccn1)C1CCCN(C(=O)C2CC2C)C1` (stereo not shown) [CBK285032], the “% of control remaining” value was 89.3746. `O=C(N[C@H]1CCN2C(=O)c3cc(Br)ccc3NC(=O)[C@H]12)c1cccc(F)c1` [CBK289334]: the “% of control remaining” value is recorded as 111.025. Turning to `CCC(c1ccc(F)cc1)N(C)C(=O)Cn1cccc(C(=O)NC2CCCCC2)c1=O` (stereo not shown) [CBK286114], the “% of control remaining” value stood at 95.6434.

For the compound `CC(C)Nc1cc(Sc2ccccc2N)ncn1` [CBK093729], the “% of control remaining” value is reported as 72.5457. Consider `O=C(Cn1cnc2c(cnn2-c2ccccc2)c1=O)NCc1ccco1` [CBK287531], for which the “% of control remaining” value is 120.049. As for `N#Cc1cccnc1N1CC2COCCC2(C(=O)N2CCC=C(F)C2)C1` (stereo not shown) [CBK304744], the figure is 89.6029. The figure for `COc1ccccc1/C=N/N=C(/Nc1ccc(C)cc1)c1nc2ccccc2s1` [CBK265051] is 97.941.

Take `Cc1ccn2cc(CNC(=O)N(C)CCc3scnc3C)nc2c1` [CBK307379]: the “% of control remaining” value is reported as 89.5473.

On to `CC(=O)N1CC[C@H]2NC(=O)CNC(=O)C3(CCCC[C@H]2C1)CCN(C(=O)CN1CCCCC1)CC3` [CBK292120], for which the “% of control remaining” value is given as 111.264. Regarding `O=C(NC(c1ccccc1)c1ccccc1)c1ccc(Cl)cc1[N+](=O)[O-]` [CBK262452], the “% of control remaining” value is reported as 94.5736. On to `CC(O)CN(CC(C)O)CC1CC2C=CC1C2` (stereo not shown) [CBK261896], for which the “% of control remaining” value was determined as 99.2683.

Turning to `NC(=O)c1cccc(-c2cnc(N)c(N3CCC[C@@H]3CO)n2)c1` [CBK063458], the “% of control remaining” value came out at 107.289. The figure for `O=C(O)CSc1nc(Nc2ccccc2)nc(N2CCOCC2)n1` [CBK269023] is 90.005. With `CCNC(=O)C1(Cc2ccccc2-c2ccccc2)CCN(C(=O)c2cccc(F)c2)CC1` [CBK285689], the “% of control remaining” value is given as 109.143. As for `CC(C)(C)c1cc(CCC(=O)NNC(=O)c2ccccc2Cl)cc(C(C)(C)C)c1O` [CBK268391], the figure is 83.4474; as for `Cn1ccc(CN2CCOC(c3nc(C(C)(C)C)cs3)C2)cc1=O` (stereo not shown) [CBK305771], 43.589; as for `C#CCN(C)CC[C@@H]1CC[C@H](O)[C@@H](C(=O)N2CCOCC2)O1` [CBK288723], 102.927. In the case of `CCOc1ccccc1NC(=O)CN(C)S(=O)(=O)c1ccc2ccccc2c1` [CBK266874], the “% of control remaining” value worked out at 106.027. As for `O=C(Nc1ccc(S(=O)(=O)N2CCCC2)cc1)c1ccc(COc2ccc3c(c2)CCC3)o1` [CBK265847], the figure is 70.5705; as for `O=C(O)C1CCCCC1C(=O)NCCN1CCCCC1` (stereo not shown) [CBK287031], 64.0365. The figure for `O=C(CC1(O)C(=O)N(Cc2ccc3c(c2)OCO3)c2ccccc21)c1ccccn1` (stereo not shown) [CBK269725] is 92.9071; for `Cc1cccc(C)c1OCc1nnc(SCc2ccc([N+](=O)[O-])cc2)n1C` [CBK269737] it is 93.1605; for `CCCCN(CCCC)S(=O)(=O)c1nc2nc(C)cc(C)n2n1` [CBK022076] it is 64.9104. Regarding `O=C(NCCN1CCN(C(=O)Nc2ccccc2)CC1)C1CCCC1` [CBK305915], the “% of control remaining” value amounted to 76.7466. As for `CS(=O)(=O)c1ccc(-n2ncc(-c3cccc(C(F)(F)F)c3)n2)cc1` [CBK112672], the figure is 69.5434; as for `O=C(O)CCSCc1ccc([N+](=O)[O-])cc1` [CBK262359], 92.6887; as for `Cc1cnn(CC(=O)N2CC[C@H]3NC(=O)c4ccccc4OCCCCC[C@H]3C2)c1` [CBK292010], 79.1054. As for `Cc1cccc(NS(=O)(=O)c2ccc(OCC(=O)Nc3ccc4c(c3)OCCO4)cc2)c1` [CBK268068], the figure is 86.5336; as for `O=C(NCc1ccncc1)c1nn(-c2ncccn2)c2ccccc12` [CBK048498], 111.673; as for `CN(C)CCNC1CS(=O)(=O)CC1O` (stereo not shown) [CBK059025], 47.1004. In the case of `COc1nccc(N2CCC3(CCCN(CC4CCC4)C3=O)C2)c1C#N` (stereo not shown) [CBK306861], the “% of control remaining” value stood at 93.5512. For the compound `NS(=O)(=O)c1ccc(NC(=O)CN2C(=O)S/C(=C\C=C\c3ccccc3)C2=O)cc1` [CBK264835], the “% of control remaining” value came to 90.1478. Regarding `Cc1cccc(CNC(=O)CC2CCN(Cc3cccc(C(F)(F)F)c3)CC2)n1` [CBK285950], the “% of control remaining” value amounted to 86.3889.

`CC(C)(N)CN(Cc1ccccc1)C(=O)/C=C/c1ccccc1` [CBK013891T]: the “% of control remaining” value came out at 64.5717.

With `CCN(CC1CCN(c2ccccn2)CC1)C(=O)C1(C#N)CCCC1` [CBK304096], the “% of control remaining” value came to 51.2263.

On to `O=S(=O)(Nc1ccc(-c2nnn[nH]2)cc1)c1c(Cl)cc(C(F)(F)F)cc1Cl` [CBK155570], for which the “% of control remaining” value is reported as 89.2026. As for `CC(C)Nc1nc2cc(Cl)c(Cl)cc2nc1SCCC(=O)O` [CBK107860], the figure is 92.2666.

On to `C(#Cc1ccc(-c2nc(-c3ccc(Sc4ccccc4)cc3)c(-c3ccc(Sc4ccccc4)cc3)[nH]2)cc1)c1ccccc1` [CBK261954], for which the “% of control remaining” value amounted to 53.4307.

As for `CCC12CN3CCN(CC(C3)/C1=N\O)C2` [CBK263022], the “% of control remaining” value is 108.141. `Cn1ncc(N2CCN(C(=O)CCN3CCCCCC3=O)CC2)cc1=O` [CBK306508]: the “% of control remaining” value amounted to 61.0353. `c1cncc(COc2nccnc2OC2CCN(CCOc3cccnc3)CC2)c1` [CBK083181]: the “% of control remaining” value is 103.766. As to `COc1ccc(Cn2nc(NC(=O)c3cnc4ccccc4n3)c3ccccc32)cc1` [CBK048343], the “% of control remaining” value came out at 99.3262. The figure for `CC(Nc1n[nH]c(=O)[nH]c1=O)C(=O)N/N=C/c1ccccc1O` (stereo not shown) [CBK263526] is 118.815; for `CC1(C(=O)O)COC(c2ccc([N+](=O)[O-])cc2)OC1` (stereo not shown) [CBK286737] it is 138.814. The figure for `Cc1ccccc1-n1ccn(C(=O)CCCOc2ccc(Cl)cc2)c1=O` [CBK106573] is 82.3485; for `O=C(c1c[nH]c(-c2ncn[nH]2)c1)c1ccc(Cl)cc1Cl` [CBK008334] it is 91.5696; for `Cc1ccnc(NCn2nnc3ccccc32)c1` [CBK261116] it is 104.144. The figure for `O=C(NCc1cccnc1)N1CCCCC1CO` (stereo not shown) [CBK156169] is 86.3705; for `Cc1nnc(CN(C)C2CCN(CCc3cccs3)C2)n1C` (stereo not shown) [CBK305126] it is 53.6817; for `Cc1nnc2nc(-c3ccc(Cl)cc3Cl)[nH]n12` [CBK027731] it is 61.3562.

As for `CSc1nc(NN2C(=O)c3ccccc3C2=O)c2c3c(sc2n1)COC(C)(C)C3` [CBK268758], the “% of control remaining” value is on record as 88.7831. As for `CCC(=O)N1CCC(c2cc(-c3cccc(F)c3)n(C)n2)CC1` [CBK282096], the “% of control remaining” value turned out to be 68.0869.

In the case of `CN(C)c1cccc(Nc2cc(-c3ccc(CCC(=O)O)cc3)ncn2)c1` [CBK091010], the “% of control remaining” value is listed as 131.245. Regarding `CC(CN1CCCCC1)OC(=O)C(c1ccccc1)c1ccccc1` (stereo not shown) [CBK265237C], the “% of control remaining” value was determined as 84.6248. The figure for `O=[N+]([O-])c1ccc(NCCCNS(=O)(=O)c2ccc(Cl)cc2)c(Cl)c1` [CBK262543] is 95.5625; for `Cc1c(C(N)=O)sc2ncn(CC(=O)NCCc3ccccc3)c(=O)c12` [CBK268514] it is 136.001. As to `CC1CCc2nc(NC(=O)c3ccccc3)sc2C1` (stereo not shown) [CBK287298], the “% of control remaining” value turned out to be 92.9596.

For `COc1ccc(CCNC(=S)N2CCN(S(C)(=O)=O)CC2)cc1OC` [CBK266917], the “% of control remaining” value was 85.9125. `CC1CCCN(c2nc3cc(C(=O)O)sc3[nH]2)C1` (stereo not shown) [CBK287159]: the “% of control remaining” value was 114.681.

Consider `Cn1nccc1C(=O)N1CCCC(c2cc3ncccc3[nH]2)C1` (stereo not shown) [CBK283413], for which the “% of control remaining” value amounted to 98.0465.

Regarding `Cc1cc(-c2nc3ncccc3o2)ccc1NC(=O)c1ccc2c(c1)OCCO2` [CBK270104], the “% of control remaining” value is 110.135. For `Cn1nc(-c2ccc(S(=O)(=O)NCCN3CCNC3=O)s2)cc1C(F)(F)F` [CBK062610], the “% of control remaining” value worked out at 100.689. The figure for `O=C(Nc1ccccc1C(=O)c1ccccc1)c1ccccn1` [CBK288150] is 83.5524; for `O=C(NC(c1ccc2c(c1)CCO2)C1CC(O)C1)c1cccc(=O)[nH]1` (stereo not shown) [CBK307463] it is 23.2927. The figure for `Cc1nc2sc3c(c2c2nc(-c4ccncc4)nn12)CCCC3` [CBK288541] is 78.3266; for `c1csc(-c2nc3[nH]c4ccccc4n3n2)c1` [CBK264118] it is 100.105. As for `O=C(CNC(=O)c1cccc(Cl)c1)N/N=C/C=C/c1ccccc1` [CBK261947], the “% of control remaining” value is 68.3153. For `NC(=S)Nn1c(CCC(=O)O)ccc1-c1cccs1` [CBK265952], the “% of control remaining” value worked out at 103.983. As for `Fc1ccc(OCCCN2CCC3(CC2)OCCc2c3[nH]c3ccccc23)cc1` [CBK107736], the figure is 89.7859; as for `Cc1ccc(C(=O)Oc2cccc(NC(=O)c3ccco3)c2)cc1S(=O)(=O)N1CCOCC1` [CBK263211], 100.686.

As to `CCc1ccc(CNC(=O)Cn2nnnc2-c2ccc(CN3CCC(C)CC3)cn2)cc1` [CBK153930C], the “% of control remaining” value was determined as 79.7645.

As for `COc1ccc(C(=O)N2CCC3(CCN(C(=O)c4cccc(C#N)c4)C3)C2)cc1OC` (stereo not shown) [CBK131773], the “% of control remaining” value was determined as 92.5869.
